From patent US20230395193A1 (priority 2020, published 2023)
Values joined by “and” are separate entries in the source; they are usually repeats but may differ in a detail not shown here. Equal entries are not always repeated.

System: newly diagnosed COVID-19 patients
Set-up: species or system human
Settings: in vivo

SMILES | Number of confirmed inpatient stays | Number of patients with any hospital visit | Odds ratio of any hospital visit versus referent | Risk of any hospital visit per 1000 patients | Risk of confirmed inpatient stays per 1000 patients | Risk ratio vs referent of any hospital visit
COc1ccc2c(c1)c(CC(=O)O)c(C)n2C(=O)c1ccc(Cl)cc1 [indomethacin] | 1 | 4 and 3 | 0.25 and 0.41 | 26.14 per 1000 patients and 29.13 per 1000 patients | 6.54 per 1000 patients and 9.71 per 1000 patients | 0.27 and 0.43
Cc1ccc(-c2cc(C(F)(F)F)nn2-c2ccc(S(N)(=O)=O)cc2)cc1 [celecoxib] |  |  |  | 98.04 per 1000 patients and 67.96 per 1000 patients | 45.75 per 1000 patients and 29.13 per 1000 patients | 
